# Source: article PMC12136788
# The list shows a part of the results.
# T1: UNK ZnF1-3 (human, UniProt Q9C0B0 31-174)
# T1 sequence: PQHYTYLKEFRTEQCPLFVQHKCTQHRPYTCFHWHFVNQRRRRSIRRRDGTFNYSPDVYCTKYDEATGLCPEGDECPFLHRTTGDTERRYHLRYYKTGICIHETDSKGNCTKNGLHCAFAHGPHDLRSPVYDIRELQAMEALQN
# B1: chr6:13577978:13577979:-_ENSMUSG00000042742_ENSMUST00000045235|mus_mus|FALSE|FALSE (ssRNA)
# RNA: GGGAGUUCUACAGUCCGACGAUCAUAUAAAAAUUUGUCACCAAUUUCAAAAAGUUCAGGAAUACUGGAUUGUUAGAUGAAACUGAGUAGAAACUGUUUUCUGCAGAAGGUAACAAUUUAAAGAAAAAGACAAAUAUGUACCACCAACAGAGGAUUGAGCAUCA
# B2: chr1:202702741:202702742:-_ENSG00000117139_ENST00000367264|hu_mus|motif|central (ssRNA)
# RNA: GGGAGUUCUACAGUCCGACGAUCUUCAGGAAGACGAACUCGUAUACGCUGUAGGGAGGCCAGCAGAGGCAGAAUUUUCUCGGAUGGAGGCUUCUCUGACCUCCGACAGUGAGGACAAAGCCAGAUUCGGGAGCUUUGUGAAAUCAACAGAGGAUUGAGCAUCA
# B3: 55459207_55460516_229_CDS_ENSG00000143947_ENST00000402285|human|control|control (ssRNA)
# RNA: GGGAGUUCUACAGUCCGACGAUCCGUAUCCGAGGGUUCAACCUCGAGGGUGAUGGUCUUCCCCGUAAGGGUUUUCACGAAAAUCUGCAUUUUGGUGGCGGCUCCACUUCCAGAAGCGGUGAUGGGCAGAGAAUCAGCAAUCUACAACAGAGGAUUGAGCAUCA
# B4: chr13:48664549:48664550:-_ENSG00000136146_ENST00000378586|hu_hu|FALSE|FALSE (ssRNA)
# RNA: GGGAGUUCUACAGUCCGACGAUCUGGUUUUCCUCUCCAGCCUGUAACAACUUUUGGUUUCUUGAAAUUGCCAGCAUUUCUAUAAGUUCCCACUCGAAGACGCAGCCAUUUUCCCCAGAGUCCCGCCACCGGCGCACGCGCAGACAACAGAGGAUUGAGCAUCA
# B5: 75309900_75310020_3645_CDS_ENSMUSG00000020850_ENSMUST00000102510|mouse|control|control (ssRNA)
# RNA: GGGAGUUCUACAGUCCGACGAUCGGUGAACUCUUCAUAGCUGGUACGGCACUUAGGCAGGAUGCGGCACUCAAAGCCACACAUGUUGAAUAGCAGGUUGGGGUUGUCUUUACUGUACACAGACACAAAGCUAUUCUCCCACUGCAACAGAGGAUUGAGCAUCA
# B6: 10741114_10743348_1180_CDS_ENSMUSG00000024294_ENSMUST00000052838|mouse|control|control (ssRNA)
# RNA: GGGAGUUCUACAGUCCGACGAUCCACUCCUCGCACCACUCUGGCACCAGCAAAGAUUCCUCUGGCUGUAAUCUUCUUAGAUUUUCUACGAGACUCUAACAGAACCCGUUCACUUCCUGGUGUAGUAAUCCUAUAAAAGCGAUGCAACAGAGGAUUGAGCAUCA
# B7: chr14:78183846:78183847:+_ENSG00000119705_ENST00000557342|hu_hu|hu_hu_hu_mus_False|8_58 (ssRNA)
# RNA: GGGAGUUCUACAGUCCGACGAUCUCUCAGAAAUCUUUCUUCAUCAGAUGUUUGAGCUCCGUGCAAAGCCUUUGCUCUUCUAGUGUGAACGUGGAUCUAUGGGAGGGAAAGCACUGUCAGAAAAGGUUGUAGUGCAUUUAAAGACAACAGAGGAUUGAGCAUCA
# B8: chr17:60770872:60770873:+_ENSG00000011028_ENST00000303375|hu_hu|hu_hu_hu_mus_True|8_38 (ssRNA)
# RNA: GGGAGUUCUACAGUCCGACGAUCUCUUUAAAAAAAAAAAAAAAAAGACAAACAAUAAUAGCACAUUUCGAGAAUCAAGAACUACAAUAGAGGGUCCAUGUCUUCGAUUUGUUCACAUCGUCCUGCAACGCUGUCGCGGGACUGCAACAGAGGAUUGAGCAUCA
# B9: chr14:76904430:76904431:+_ENSMUSG00000022010_ENSMUST00000022587|mus_mus|mus_mus_mus_hu_True|8_48 (ssRNA)
# RNA: GGGAGUUCUACAGUCCGACGAUCUGCAGCCAAAAACACCCUCGUGGAAAAAAAGAGGGAACACCAGCAGCCUUGUAUAAGCUAGAUAAAACCGCCUGGCUUUCCGCAGCCCAGGGAGAAACAGAAAUGGUGCUGGCUAAUUUACAACAGAGGAUUGAGCAUCA
# B10: chr6:155153589:155153590:+_ENSG00000213079_ENST00000417268|hu_hu|FALSE|FALSE (ssRNA)
# RNA: GGGAGUUCUACAGUCCGACGAUCAGUAACAUUGUCUACGCUUUGUCUUCCAGGAGCUAAAAAAGGUCUUUCUGGUUGACUAAAAAUAUCUCCUGGAGGAAAAGGUCCACGGGGUGGUGGAUGAAGAGCUGAAUCAAGUACCGACAACAGAGGAUUGAGCAUCA
# B11: chr7:135839593:135839594:+_ENSMUSG00000042105_ENSMUST00000151237|mus_mus|motif|central (ssRNA)
# RNA: GGGAGUUCUACAGUCCGACGAUCCUGAGAGUCAGUUAACCAGAGUAAGGCUCUAAAGGAUGCCAGAGACAUUGAUACCUGCGGGAAUAUGCCUACAGCUUUCUCACUCUGGGUUACAGAAGAGGUUCUUGGUGGUUAGUUACUCAACAGAGGAUUGAGCAUCA
# B12: 50087819_50087939_391_5pUTR_ENSG00000168282_ENST00000305386|human|control|control (ssRNA)
# RNA: GGGAGUUCUACAGUCCGACGAUCCUGCUUCUGCACGGAAGGGGCGGGCGGGCGGCGGCCGUCGCCUUGGCCUGUCACGGUCGGAACUGGCCCCCGCGGCUGCCCUCGCUAACUCAUCCCGGGCCCCGGGGGUCCUGGGGCCCGCAACAGAGGAUUGAGCAUCA
# B13: chr4:71639242:71639243:+_ENSG00000018189_ENST00000226328|hu_mus|FALSE|FALSE (ssRNA)
# RNA: GGGAGUUCUACAGUCCGACGAUCUCCAUCCCCUUCACUACCUUUACUACUGUUUCCAUCUUUGAGAUACAUCGAAAAAUCUAUAACUCCAACCUGAGAGUCCAGGUCUUCUCCUUUCAUGCAGAAAUUGGCAUCGAUGACAUUCAACAGAGGAUUGAGCAUCA
# B14: chr16:21666878:21666879:+_ENSG00000197006_ENST00000396014|hu_mus|motif|central (ssRNA)
# RNA: GGGAGUUCUACAGUCCGACGAUCUUUAAAAACACUCCCUUACACACUACAAAGAAAGAAUUAGUAUUUUGGCUUUUUAAAUUCCGGCAUGAUACUGAGAAUGACAGUCCCCAGAGGUCCCCCUCACAUCACUGGAUGCAUCUCCAACAGAGGAUUGAGCAUCA
# B15: chr9:42776432:42776433:-_ENSMUSG00000059495_ENSMUST00000165665|mus_mus|FALSE|FALSE (ssRNA)
# RNA: GGGAGUUCUACAGUCCGACGAUCGUUCAACUCAGUAGUGAUUCAGUUUCGAAAACCUCUUUCUUCUCUCCCAAAUCCCAACUAUCAAUAGAAAAGACAACGACAAGGGAAAUCCACCCAUUUUCAAGUGCCUGCCAUUUAGUGCAACAGAGGAUUGAGCAUCA
# B16: chr1:44156729:44156730:-_ENSMUSG00000026049_ENSMUST00000150911|mus_hu|FALSE|FALSE (ssRNA)
# RNA: GGGAGUUCUACAGUCCGACGAUCAAGGUAUUUUUAAUUUAACCUCUGUAUGACUCAUUUUCACUGUUGAAUAACAAACUUAAAGUGCAUUUACAUCUGAGAAGCAAAGGACAUCUCCCCGGGAAGGCAAAAGUGGCCGCGGGCCAACAGAGGAUUGAGCAUCA
# B17: 91004473_91005321_2523_CDS_ENSMUSG00000030091_ENSMUST00000032179|mouse|control|control (ssRNA)
# RNA: GGGAGUUCUACAGUCCGACGAUCCGAGACUGUCUGCAAACCAUGUAGUUUCUUUUGGCCAUUCCCAUCAUCCUGGGAUACCAGCUGCAUGGGCUGGUCAAGCUCAAUGCUGGCCAGCAAUGGCCGGGAGGACUCCCACUGGAUCAACAGAGGAUUGAGCAUCA
# B18: chr3:9412954:9412955:+_ENSG00000134077_ENST00000452837|hu_mus|hu_hu_hu_mus_False|48_108 (ssRNA)
# RNA: GGGAGUUCUACAGUCCGACGAUCGGUUGAUACAUCCUCUUUGAUGGCUGGAUUUUCAUAAUAGUCCAAGAUAUGUGAAUCUGAAGUAUGGCUAGUGUGCUUUUUCUUACCAUCUUUCUCAUCUGCUUUGUCUCCUUGUCCACACAACAGAGGAUUGAGCAUCA
# B19: chr8:3623242:3623243:+_ENSMUSG00000087687_ENSMUST00000156380|mus_mus|FALSE|FALSE (ssRNA)
# RNA: GGGAGUUCUACAGUCCGACGAUCUCUGCUGGGCAGCUUGAAGAAGUCUCUCUUCUUUCUGCUUCCGGAUCUUCUGCUUAAAUUCUUCUAGCUCCUGGCGCUGACCCUCCUUCUCUCUUGGCCACAGCUCCCUCUUACGCUGGACAACAGAGGAUUGAGCAUCA
# B20: 138450947_138451067_2129_CDS_ENSG00000189184_ENST00000507846|human|control|control (ssRNA)
# RNA: GGGAGUUCUACAGUCCGACGAUCUAUGGUAGGCACCAAUGUGAUGUCCCCUUUGUGAAUCUGCCGGGAUGGCCUUUUUGGGUGGUGCUGGUAAGUUGAUUCGGCCACCCUGCAGUUAUAGGAUCUAGUGUCUUUCUUCUCGCGCAACAGAGGAUUGAGCAUCA
# B21: chr4:107252891:107252892:+_ENSG00000164022_ENST00000394701|hu_mus|FALSE|FALSE (ssRNA)
# RNA: GGGAGUUCUACAGUCCGACGAUCAGGGUGCUUCUUGGCAGUAACAAUACAACCAAUUCGAAGAUCCAGACGCGAUGCGUCGAUAGGCUUGGAGUCAGUACUUGCUGCUGCCGACUGCUGCUUCUCCUUUUUCUCUCCUUUCUUCAACAGAGGAUUGAGCAUCA
# B22: chr12:42180722:42180723:-_ENSMUSG00000036295_ENSMUST00000043884|mus_hu|mus_mus_mus_hu_True|8_38 (ssRNA)
# RNA: GGGAGUUCUACAGUCCGACGAUCCUGUAGGAGAAGAAUCUGUGUGUUAGCUGGCAAUCUGGCUGGGAAAGUUAAAAGACCUAAAUCAUUACAAUCCACUGUCGAUGCUUCCAUAUAAAUGGAUCUGGGGGUAAACCAAGGCCUCAACAGAGGAUUGAGCAUCA
# Molecular target: T1, UNK ZnF1-3
# Test: nsRBNS (natural sequence RNA bind-n-seq); RBNS binding buffer (assumed for nsRBNS): 25 mM Tris pH 7.5, 150 mM KCl, 3 mM MgCl2, 0.01% Triton X-100, 500 ug/ml BSA, 20 U/ml SUPERase-In, 4 C; UNK is unkempt and MSI1 is Musashi-1; names of the RNAs are library labels; protein concentration not given here; high values mean tight binding
row,Binder,binding signal [enrichment R]
1,B1,1.07
2,B2,1.06
3,B3,1.28
4,B4,1.39
5,B5,1.11
6,B6,1.07
7,B7,1.27
8,B8,1.64
9,B9,2.19
10,B10,0.733
11,B11,0.959
12,B12,0.675
13,B13,1.03
14,B14,1.35
15,B15,1.65
16,B16,1.07
17,B17,0.481
18,B18,0.431
19,B19,0.536
20,B20,0.561
21,B21,0.583
22,B22,1.46
